The source of these data is article PMC6989696, “Arginine π-stacking drives binding to fibrils of the Alzheimer protein Tau” (Nature Communications, 2020).

For series [1], the target named is T1, HA-tagged mouse Map7 M1-S227, wild type (mouse, UniProt O88735 1-227).
T1 construct: Map7, mouse, N-terminal truncation M1-S227; also called Map7 wt; HA-Map7 M1-S227; source: E. coli BL21 Rosetta 2, purified (Ni-IDA, cation exchange); not shown: HA, N-terminal, kept; His6-Smt, N-terminal, cleaved
T1 sequence (looked up): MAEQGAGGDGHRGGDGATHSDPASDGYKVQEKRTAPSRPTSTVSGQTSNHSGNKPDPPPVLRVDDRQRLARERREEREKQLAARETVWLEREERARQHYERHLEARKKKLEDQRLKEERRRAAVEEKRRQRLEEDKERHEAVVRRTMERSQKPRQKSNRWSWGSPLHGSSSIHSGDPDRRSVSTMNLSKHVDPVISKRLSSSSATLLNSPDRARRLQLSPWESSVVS
Description: co-sedimentation; Tau-RD* fibrils (20 µM of monomers, timepoint 24 h) reacted 1 h at 37 °C with 0.5 µM HA-Map7 M1-S227 in aggregation buffer; sucrose density gradient, 2.5 h at 200,000×g; dot blot with anti-HA and anti-FLAG. The following applies: both partners purified.

Series [2] concerns the molecule itself. Description: sucrose density gradient centrifugation; Tau-RD* (37 µM of monomers) aggregated with heparin (Tau:heparin 4:1) at 37 °C for 1, 8, 24 h; 10-40% sucrose gradient; 2.5 h at 200,000×g; 12 fractions, dot blot with anti-FLAG.

B1: FLAG-tagged Tau-RD-ΔK280 (human Tau Repeat Domain, […]) (domain or fragment)
chain: not shown
notes: Tau repeat domain (K18), human, […], with the pro-aggregation mutation ΔK280; the assay tells which state; also called K18; Tau fibrils; source: E. coli BL21 Rosetta 2, purified (POROS 20MC, cation exchange, SEC); not shown: FLAG, N-terminal, kept; His6-Smt, N-terminal, cleaved
In the case of B1, the binding result in series [1] and in series [2] was “binds” throughout.
